Measurements published in the supplement of paper PMC3334620.
The full ranking holds about 33,000 sequences; the median of “E-score (-0.5 to 0.5)” is about -0.054, and the highest 2% start at about 0.35. This is one part of the list.

What follows are sequences tested against T1, Stb5 (UniProt P38699) (assay: PBM E-score (8-mer binding enrichment) (E-score (-0.5 to 0.5)); higher = stronger / more preferred TF binding; most listed sequences are background and not binding sites). Details: protein concentration: 200 nM; construct: GST-full length.
T1 sequence: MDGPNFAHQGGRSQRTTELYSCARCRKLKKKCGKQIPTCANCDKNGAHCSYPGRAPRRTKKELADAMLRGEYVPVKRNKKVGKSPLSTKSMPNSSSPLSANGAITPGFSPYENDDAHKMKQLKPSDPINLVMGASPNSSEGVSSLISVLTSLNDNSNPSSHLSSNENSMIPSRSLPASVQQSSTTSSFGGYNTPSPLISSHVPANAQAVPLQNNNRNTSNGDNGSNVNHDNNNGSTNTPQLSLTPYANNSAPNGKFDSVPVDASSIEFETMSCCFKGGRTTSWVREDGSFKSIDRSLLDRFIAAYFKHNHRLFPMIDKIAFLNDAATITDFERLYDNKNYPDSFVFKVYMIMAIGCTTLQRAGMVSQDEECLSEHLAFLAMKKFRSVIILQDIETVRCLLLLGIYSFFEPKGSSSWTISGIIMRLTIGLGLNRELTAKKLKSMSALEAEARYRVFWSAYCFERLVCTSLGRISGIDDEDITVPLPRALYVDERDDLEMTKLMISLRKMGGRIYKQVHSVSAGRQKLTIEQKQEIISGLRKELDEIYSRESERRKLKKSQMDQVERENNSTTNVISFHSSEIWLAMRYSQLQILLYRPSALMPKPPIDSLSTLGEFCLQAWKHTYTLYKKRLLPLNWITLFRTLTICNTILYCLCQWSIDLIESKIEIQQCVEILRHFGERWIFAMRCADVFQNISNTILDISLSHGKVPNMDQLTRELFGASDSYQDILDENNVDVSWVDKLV
Procedure, shortened: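 GST-tagged yeast TFs (full-length or DNA-binding domain) were made by PURExpress in vitro transcription/translation and applied at about 100-200 nM to universal all-10-mer Agilent arrays. The arrays were made double-stranded by primer extension, on fresh or once-stripped slides. Bound protein was detected with fluorescent anti-GST, and scans were normalised with masliner. Each ungapped eight-base word, pooled with its reverse complement, received an E-score (modified Wilcoxon-Mann-Whitney statistic) from the Universal PBM Analysis Suite.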

Sequence | PBM E-score
AAAAGAGA | -0.201
CCTACACA | -0.2
ACCCATCG | 0.1
ATGAGCAG | -0.258
ACTTTGCG | -0.133
ACCATCCG | -0.0159
TCAGCTGA | -0.186
ATGCCGGG | 0.287
GCATTAGC | -0.0138
CGGTCGAA | 0.166
ATTCTCCC | 0.0255
GGACCTCC | 0.0561
CAGTCTGA | -0.12
ATCGCCTA | -0.0845
GGGTACCA | -0.157
ACAGAGTA | -0.147
ATCCAGAA | -0.227
AATAAGGC | -0.0871
GAGAAATA | 0.139
ATTAAGAA | 0.0289
CGGATTGC | 0.014
AGCGCAAC | 0.0937

Sequence | PBM E-score
CACTTCAC | -0.098
ATGTTCTG | -0.112
CCATTCCG | -0.0472
TCAAACAA | -0.00872
CTTTGAAC | -0.0864
AAGTCAAG | -0.195
GGTATTGA | 0.117
AATACACT | -0.287
GCCTTTAC | 0.00064
GGTCTATA | 0.00974
AGTGCTTA | -0.124
CTTGCCAC | -0.0929
GTTGGGCA | -0.13
AGTGGGCC | -0.237
GTGTAAAA | 0.0796
ATGCGGGA | 0.164
CTCCTATC | 0.0831
ATTTTAAA | 0.201
AAGTAGGT | 0.00443
CAGTCAGA | -0.149
CCGTATAA | 0.307
CCGGGGGC | 0.185

Sequence | PBM E-score
ACAGAGCT | -0.138
GACTATAC | 0.0897
ACGTTTTA | -0.0802
TACCTTAA | -0.0511
ACAAATAG | 0.0815
CCCGTTTA | 0.188
CACCCCAA | -0.194
AAATCGTT | -0.223
CCAGGCAG | -0.297
CCCTGCCA | -0.217
GGGGCTCA | -0.11
AAAAAGCG | 0.144
ACCGACAA | 0.369
GCTGTCGA | -0.079
CCCTATCC | -0.177
CACTTACA | -0.141
AAAGAAAT | -0.118
CATTTGAG | -0.0381
CACTGCTG | -0.276
ATTCCCCG | 0.32
CGGGACCA | 0.279
AATTTCAT | -0.231

Sequence | PBM E-score
AAGTCCCA | -0.0453
AATATTCA | -0.187
CAACAGTA | -0.207
AGTAGATC | 0.00147
CTGAGTGA | 0.0556
CAAGCTTG | -0.0941
ATGCCCTG | -0.181
GATGCGTA | -0.0988
CAGTTCTC | -0.101
AGAGGAAT | -0.295
AAACCCCC | 0.263
AGACTTTC | -0.0373
CTATCTCA | -0.161
ACATAATC | 0.0496
ATGAGCCG | 0.0249
AGAGTATA | 0.0611
GAGTTCCC | -0.0023
ACCTTCTG | 0.0258
AAGACCTA | -0.0173
ACAGCGCC | 0.254
